Patent publication US10064873B2, “Compounds and compositions for treating HIV with derivatives of Betulin” (GlaxoSmithKline LLC, priority 2011, dated 2018)

Columns and labels:
HIV-1 C 97ZA009 (V370A+) = details: Human immunodeficiency virus 1, read-out: HIV-1 C 97ZA009 (V370A+) EC50 (nM)
HIV-1 B CC1/85 (V370A) = details: Human immunodeficiency virus 1, BCC1, read-out: HIV-1 B CC1/85 (V370A) EC50 (nM)
Experimental: (§1) This example was performed as follows. Crude human primary blood mononuclear cells (PBMCs) were collected from healthy donors via leukapheresis and determined to be negative for HIV exposure, among a variety of additional infectious diseases. PBMCs were isolated via Ficoll-Hypaque density gradient separation followed by aspiration of the banded leukocytes from the gradient. Purified PBMCs from 10 individual donors were combined and cryopreserved in liquid nitrogen as a PBMC pool. Various PBMC pools were utilized.
(§2) Various HIV-1 isolates were obtained from different sources. A stock of the virus was generated in a pool of CD4+ PBMCs and frozen. Viral replication for each virus stock was measured on PHA-blasted PBMC pools to determine the appropriate virus input for anti-viral assays. HIV gag sequences were determined for each isolate by the Sanger di-deoxy sequencing method.
(§3) Cryo-preserved PBMC pools were thawed and stimulated with 2 μg/mL PHA in media (RPMI1640, 20% FBS, 10% T cell growth factor, antibiotics) for 3 days. Blasts were then washed, counted, and cultured in media at 2×10^6 cells/mL in media with 10 U/mL recombinant IL-2 for an additional 24 hours. Stimulated PBMCs were counted for trypan blue exclusion viability and seeded in 96-well round bottom plates at a final density of 1×10^6 cells/well. A volume of the drug dose titration was added to the cells followed by a predetermined amount of virus.
(§4) In order to determine anti-viral potency, HIV reverse transcriptase activity in cell culture supernatants was measured as a measure of viral replication in the presence or absence of compound. At the end of the incubation period, fifty (50) μL of PBMC culture supernatants were transferred to a new 96-well plate; 10 μL of RT extraction buffer was added followed by the addition of 40 μL of RT assay buffer. The RT plates were thoroughly mixed and placed in a humidified incubator at 37° C., 5% CO2 for 2 h. DE-81 96-well plates were placed on a vacuum manifold and 100 uL of the RT reaction transferred to the ion-exchange chromatography plates. After applying the solution phase of the RT reaction to the DE-81 plate, the plate was then washed once with prepared 5% Na2HPO4, followed by a wash of dH20. Plates were then allowed to dry overnight at room temperature. The plates were sealed and 50 μL scintillation fluid added prior to reading on a Topcount (Packard) luminometer at 10 s/well.

HIV-1 B ASJM108 (V370A+) = details: Human immunodeficiency virus 1, read-out: HIV-1 B ASJM108 (V370A+) EC50 (nM)
Experimental: as §1, §2, §3, §4

| SMILES | EC50 (HIV-1 C 97ZA009 (V370A+)) [nM] | EC50 (HIV-1 B CC1/85 (V370A)) [nM] | EC50 (HIV-1 B ASJM108 (V370A+)) [nM] |
| --- | --- | --- | --- |
| C=C(C)[C@@H]1CC[C@]2(C(=O)O)CC[C@]3(C)[C@H](CC[C@@H]4[C@@]5(C)CC[C@H](OC(=O)CC(C)(C)C(=O)O)C(C)(C)[C@@H]5CC[C@]43C)[C@@H]12 [Bevirimat] | 13400 | > 10000 | > 10000 |
| CC(C)C1=C2[C@H]3CC[C@@H]4[C@@]5(C)CC[C@H](OC(=O)CC(C)(C)C(=O)O)C(C)(C)[C@@H]5CC[C@@]4(C)[C@]3(C)CC[C@@]2([C@@H](O)CN(CCN(C)C)Cc2ccc(Cl)cc2)CC1=O [Compound 51, 4-(((3aR,5aR,5bR,7aR,9S,11aR,11bR,13aS)-3a-((R)-2-((4-chlorobenzyl)(2-(dimethylamino)ethyl)amino)-1-hydroxyethyl)-1-isopropyl-5a,5b,8,8,11a-pentamethyl-2-oxo-3,3a,4,5,5a,5b,6,7,7a,8,9,10,11,11a,11b,12,13,13a-octadecahydro-2H-cyclopenta[a]chrysen-9-yl)oxy)-2,2-dimethyl-4-oxobutanoic acid] | – | 1.2 | 1 |
